Among all 420,000 compounds or so, about 64,000 (15%) were called active. The shares of active, inactive and inconclusive entries below differ from those in the screen. The call rests on the fitted dose curve; in most records, active means well fitted inhibition curve with a large enough effect; inconclusive means small, poorly fitted or top-dose-only effect; inactive means flat fitted curve, though single readings scatter. Potencies of inconclusive entries are left out as doubtful fits.
Test: qHTS for Inhibitors of human tyrosyl-DNA phosphodiesterase 1 (TDP1): qHTS in cells in absence of CPT; further: nearly all actives have a fitted effect of over 55% in size
Settings: DT40 Tdp1-/- hTDP1 cells, no CPT, ATP luminescence, 48 h; activity change, negative = growth inhibition: at 46.2 µM (top of the series)
Method in brief: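 A cellular qHTS used chicken DT40 cells lacking endogenous Tdp1 but carrying stably transfected human TDP1. Compounds were applied without camptothecin, and cell growth kinetics were judged by ATP-dependent luminescence after ≥48 hr.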
On the % scale 0 is the no-effect control and ±100 the full control effect; potency means the concentration at half of the fitted maximal effect; tags describe the fitted curve by direction and shape.

Row | Compound | Potency | activity change, negative = growth inhibition
1 | COc1ccc(/C=C/C(=O)c2ccccc2O)cc1CN1CCOCC1 | inconclusive [inhibitor, single point] | –
2 | CCCCC(CC)Cn1c(N)c(C#N)c2nc3ccccc3nc21 (stereo unspecified) | inconclusive [inhibitor, single point] | –
3 | COc1c(C)cc(C(=O)C2CCCN(C(=O)c3ccc4[nH]ccc4c3)C2)cc1C (stereo unspecified) | inconclusive [inhibitor, single point] | –
4 | Cn1nnnc1SCC(=O)N1CCN(S(=O)(=O)c2ccc(Cl)cc2)CC1 | – | inactive: -17.1%
5 | CCN(CC(=O)Nc1c(F)cccc1F)C(=O)c1cccc(S(=O)(=O)N2CCN(c3ccccc3)CC2)c1 | inconclusive [inhibitor, partial curve] | –
6 | COc1ccccc1CNc1nccn(-c2ccc(F)cc2)c1=O | – | inactive: -25.6%
7 | O=C(N/N=C/c1ccc(COc2ccc(Br)cc2)o1)c1ccco1 | inconclusive [inhibitor, single point] | –
8 | O=[N+]([O-])c1ccccc1S(=O)NCc1c(Cl)cccc1Cl (stereo unspecified) | inconclusive [inhibitor, single point] | –
9 | CC(=O)N1CCN(S(=O)(=O)c2cccc(C(=O)NNC(=O)COc3ccc(Cl)cc3C)c2)CC1 | – | inactive: -13.6%
10 | OC(COCC1CC=CCC1)Cn1cnc2ccccc21 (stereo unspecified) | – | inactive: -15.8%
11 | COC(=O)CN1C(=O)C(O)(c2c(C)[nH]c3ccccc23)c2ccccc21 (stereo unspecified) | inconclusive [inhibitor, single point] | –
12 | CNS(=O)(=O)c1cccc(C(=O)Nc2cccnc2)c1 | – | inactive: -21.9%
13 | COc1ccccc1N(C)S(=O)(=O)c1ccc(C(=O)Nc2ccc(C(N)=O)cc2)cc1 | inconclusive [inhibitor, single point] | –
14 | CN(C)C(CNc1ncnc2sc3c(c12)CCCCC3)c1ccco1 (stereo unspecified) | active: 18.4 µM | –
15 | COCCn1c(C)nnc1SCC(=O)Nc1ccccc1[N+](=O)[O-] | – | inactive: 16.8%
16 | CCOc1ccc(CCNC(=O)NCc2noc3ccc(C)cc23)cc1 | inconclusive [inhibitor, single point] | –
17 | O=C(Nc1cccnc1)c1ccc(S(=O)(=O)c2ccc(Cl)cc2)cc1 | active: 23.1 µM | –
18 | Cc1cc(C)n2ncc(/C(N)=N/OC(=O)c3ccccc3F)c2n1 | inconclusive [inhibitor, partial curve] | –
19 | CCc1oc2ccccc2c1C(=O)c1cc(Br)c(O)c(Br)c1 | inconclusive [inhibitor, single point] | –
20 | COc1cccc2[nH]c3c(N4CCC5(CC4)OCCO5)ncnc3c12 | active: 23.1 µM | –
21 | CCOCCc1nn2c(=O)cc(COC(=O)c3ccc(NC(=O)c4cccs4)cc3)nc2s1 | inconclusive [inhibitor, full curve, poor fit] | –
22 | COC(=O)c1ccccc1-c1cc(C)cc2c1OC(CNC(=O)c1cc(C)n(C)n1)C2 (stereo unspecified) | inconclusive [inhibitor, partial curve, poor fit] | –
23 | COc1ccc(-c2[nH]c(-c3ccc(C)cc3)nc2SCC(=O)Nc2nccs2)cc1 | inconclusive [inhibitor, single point] | –

Row | Compound | Potency | activity change, negative = growth inhibition
24 | Fc1ccccc1-c1csc(=Nc2cccnc2)n1CC1CCCO1 (stereo unspecified) | inconclusive [inhibitor, single point] | –
25 | C[C@H]1CN([C@@H](C)CO)C(=O)CCCn2nncc2CO[C@@H]1CN(C)S(=O)(=O)c1cn(C)cn1 | – | inactive: -2.81%
26 | COc1ccc(C(=O)Nc2nc(-c3ccc(Br)cc3)ns2)cc1 | inconclusive [inhibitor, partial curve] | –
27 | O=C(COC(=O)c1ccc(CNS(=O)(=O)c2ccc(F)c(Cl)c2)cc1)NCC1CCCCC1 | – | inactive: -7.03%
28 | O=S(=O)(c1ccc2ccccc2c1)N1CCC(c2nc(-c3ccncc3)no2)CC1 | active: 9.2 µM | –
29 | CCCCNC(=O)CSc1nc2ccccc2n1S(=O)(=O)c1ccc(Cl)cc1 | – | inactive: -7.26%
30 | CCOc1ccc(CC(=O)Nc2cccc(-c3ccc4nnc(C)n4n3)c2)cc1 | inconclusive [inhibitor, single point] | –
31 | CCc1cccc(C)c1NC(=O)COn1nnc2ccc(C(F)(F)F)cc21 | inconclusive [inhibitor, single point] | –
32 | O=C(OCC(=O)N1CCOCC1)c1ccccc1O | – | inactive: 11.7%
33 | O=C(NC1CC(=O)N(c2ccc(F)cc2)C1)c1ccc(S(=O)(=O)N2CCOCC2)cc1 (stereo unspecified) | – | inactive: -19.8%
34 | CN1C(=O)CC(Nc2cccc3cccc(N)c23)C1=O (stereo unspecified) | – | inactive: -3.24%
35 | O=C1C=C(OCCF)CC(c2ccccc2C(F)(F)F)O1 (stereo unspecified) | – | inactive: 23.1%
36 | Cc1cc(NC(=O)COc2coc(CN3CCN(c4ccccc4F)CC3)cc2=O)no1 | – | inactive: -13.2%
37 | CC(=O)c1cccc(NC(=O)/C=C/c2ccc(S(=O)(=O)N3CCOCC3)cc2)c1 | active: 18.4 µM | –
38 | CCCn1c(C)cc(C(=O)COc2ccc(C)nc2[N+](=O)[O-])c1C | inconclusive [inhibitor, single point] | –
39 | COc1ccc2[nH]c(=O)c(CN(CCO)S(=O)(=O)c3ccc(C)cc3)cc2c1 | inconclusive [inhibitor, single point] | –
40 | Cc1cc(NC(=O)CCCC(=O)N(c2ccccc2)C(C(=O)NC2CCCCC2)c2cccs2)no1 (stereo unspecified) | inconclusive [inhibitor, single point] | –
41 | O=C1Nc2cc(C(=O)N3CCN(c4ccc(F)cc4)CC3)ccc2NC1CSCc1cccc(F)c1 (stereo unspecified) | inconclusive [inhibitor, single point] | –
42 | CN(C)C(CNC(=O)c1cc(S(=O)(=O)N(C)c2ccccc2)ccc1Cl)c1cccs1 (stereo unspecified) | active: 6.51 µM | –
43 | COc1ccc(NC(=O)Cn2c(=O)c3cccn3c3ccccc32)cc1 | – | inactive: -26.6%
44 | CCOC(=O)c1c(NC(=O)c2ccc(S(=O)(=O)N3CCCC(C)C3)cc2)sc2c1CC(C)(C)NC2(C)C (stereo unspecified) | active: 20.6 µM | –
45 | N#Cc1ccc(C(=O)NCCCSc2ccccc2)cc1 | active: 20.6 µM | –
46 | COc1ccc(OC)c(N/C=C/C(=C(C#N)C#N)N(C)C)c1 | inconclusive [inhibitor, single point] | –
